Results on 44 compounds are retold here after patent publication US7423058B2, “Inhibitors of hepatitis C virus NS3 protease” (Schering Corporation, priority 2004, dated 2008).

The target of the test is Recombinant heterodimeric HCV NS3/NS4A protease (strain 1a) (Hepatitis C virus genotype 1a, UniProt P27958). Put plainly: Spectrophotometric assay for HCV protease inhibitory activity (chromogenic ester substrates). In kind it is biochemical. As to conditions: Table 3, Esters; read-out: Ki* Range.
In general, Ki refers to the dissociation constant of the complex between target and ligand, obtained from inhibition or displacement. Turning to `C=CCNC(=O)C(=O)C(CCC)NC(=O)[C@@H]1[C@@H]2[C@H](CN1C(=O)[C@@H](NC(=O)N[C@H](C(=O)OCc1ccccc1)C1CCCC1)C(C)(C)C)C2(C)C` (some centres unmarked) [compound 4417], the Ki was less than 75 nM.
Then `CC(C)[C@H](NC(=O)N[C@H](C(=O)N1C[C@H]2[C@@H]([C@H]1C(=O)NC(CC1CC1)C(=O)C(N)=O)C2(C)C)C(C)(C)C)C(=O)OC1Cc2ccccc2C1` (some centres unmarked) [compound 4418], with less than 75 nM.
Take `C=CCNC(=O)C(=O)C(CCC)NC(=O)[C@@H]1[C@@H]2[C@H](CN1C(=O)[C@@H](NC(=O)N[C@H](C(=O)OC(C)C1CC1)C(C)(C)C)C(C)(C)C)C2(C)C` (some centres unmarked) [compound 4419]: the inhibitory constant (Ki) was less than 75 nM.
For the compound `CC(C)(C)[C@@H](NC(=O)N[C@@H](C(=O)N1C[C@H]2[C@@H]([C@H]1C(=O)NC(CC1CC1)C(=O)C(N)=O)C2(C)C)C(C)(C)C)C(=O)OC1Cc2ccccc2C1` (some centres unmarked) [compound 4420], the Ki was less than 75 nM.
Then `CC(C)(C)C[C@H](NC(=O)N[C@H](C(=O)N1C[C@H]2[C@@H]([C@H]1C(=O)NC(CC1CC1)C(=O)C(N)=O)C2(C)C)C(C)(C)C)C(=O)OCc1ccoc1` (some centres unmarked) [compound 4421], with less than 75 nM; and `CC(C)(C)[C@H](NC(=O)N[C@H](C(=O)N1C[C@H]2[C@@H]([C@H]1C(=O)NC(CC1CCC1)C(=O)C(N)=O)C2(C)C)C(C)(C)C)C(=O)OC1CCCC1` (some centres unmarked) [compound 4422], with less than 75 nM; and `CC(C)(C)[C@H](NC(=O)N[C@H](C(=O)N1C[C@H]2[C@@H]([C@H]1C(=O)NC(CC1CC1)C(=O)C(N)=O)C2(C)C)C(C)(C)C)C(=O)OC1CCC1` (some centres unmarked) [compound 4423], with less than 75 nM.
In the case of `CC(C)[C@H](NC(=O)N[C@H](C(=O)N1C[C@H]2[C@@H]([C@H]1C(=O)NC(CC1CC1)C(=O)C(N)=O)C2(C)C)C(C)(C)C)C(=O)OC1CCCC1` (some centres unmarked) [compound 4424] it was less than 75 nM.
In the case of `C[C@@H](OC(=O)[C@@H](NC(=O)N[C@H](C(=O)N1C[C@H]2[C@@H]([C@H]1C(=O)NC(CC1CCC1)C(=O)C(N)=O)C2(C)C)C(C)(C)C)C(C)(C)C)c1ccccc1` (some centres unmarked) [compound 4425] it was less than 75 nM; in that of `CC(C)(C)[C@H](NC(=O)NC1(C(=O)OCc2ccsc2)CCCCC1)C(=O)N1C[C@H]2[C@@H]([C@H]1C(=O)NC(CC1CC1)C(=O)C(N)=O)C2(C)C` (some centres unmarked) [compound 4426], less than 75 nM; in that of `C=CCNC(=O)C(=O)C(CCC)NC(=O)[C@@H]1[C@@H]2[C@H](CN1C(=O)[C@@H](NC(=O)N[C@H](C(=O)OCc1ccc(OC)cc1)C(C)(C)C)C(C)(C)C)C2(C)C` (some centres unmarked) [compound 4427], less than 75 nM.
Consider `CC(C)(C)OC(=O)[C@@H](NC(=O)N[C@H](C(=O)N1C[C@H]2[C@@H]([C@H]1C(=O)NC(CC1CCC1)C(=O)C(N)=O)C2(C)C)C1CCCC1)C(C)(C)C` (some centres unmarked) [compound 4428], for which the Ki was less than 75 nM.
Turning to `CC(C)OC(=O)[C@@H](NC(=O)N[C@H](C(=O)N1C[C@H]2[C@@H]([C@H]1C(=O)NC(CC1CC1)C(=O)C(N)=O)C2(Cl)Cl)C(C)(C)C)C(C)(C)C` (some centres unmarked) [compound 4429], the Ki was less than 75 nM.
In the case of `CC1(C)[C@@H]2[C@@H](C(=O)NC(CC3CC3)C(=O)C(N)=O)N(C(=O)[C@@H](NC(=O)NC3(C(=O)OCC4CC4)CCCCC3)C3CCCCC3)C[C@@H]21` (some centres unmarked) [compound 4430] it was less than 75 nM.
Then `C=CCNC(=O)C(=O)C(CCC(F)(F)F)NC(=O)[C@@H]1[C@@H]2[C@H](CN1C(=O)[C@@H](NC(=O)N[C@H](C(=O)OC(C)(C)C)C(C)(C)C)C(C)(C)C)C2(C)C` (some centres unmarked) [compound 4431], with less than 75 nM.
Take `C=CCNC(=O)C(=O)C(CCC(F)(F)F)NC(=O)[C@@H]1[C@@H]2[C@H](CN1C(=O)[C@@H](NC(=O)N[C@H](C(=O)OCc1ccccc1)C(C)(C)C)C(C)(C)C)C2(C)C` (some centres unmarked) [compound 4432]: the Ki was less than 75 nM.
Then `CC(C)(C)OC(=O)[C@@H](NC(=O)N[C@H](C(=O)N1C[C@H]2[C@@H]([C@H]1C(=O)NC(CC1CC1(F)F)C(=O)C(N)=O)C2(C)C)C(C)(C)C)C(C)(C)C` (some centres unmarked) [compound 4433], with less than 75 nM; and `CC(C)[C@H](NC(=O)N[C@H](C(=O)N1C[C@H]2[C@@H]([C@H]1C(=O)NC(CC1CC1(F)F)C(=O)C(N)=O)C2(C)C)C(C)(C)C)C(=O)OCc1ccccc1` (some centres unmarked) [compound 4434], with less than 75 nM.
Then `CC1(C)[C@@H]2[C@@H](C(=O)NC(CC3CC3)C(=O)C(N)=O)N(C(=O)[C@@H](NC(=O)NC3(C(=O)OCc4ccccc4)CC4CCC3C4)C3CCCCC3)C[C@@H]21` (some centres unmarked) [compound 4435], with less than 75 nM; and `C[C@H](OC(=O)[C@@H](NC(=O)N[C@H](C(=O)N1C[C@H]2[C@@H]([C@H]1C(=O)NC(CC1CC1)C(=O)C(N)=O)C2(Cl)Cl)C(C)(C)C)C(C)(C)C)c1ccccc1` (some centres unmarked) [compound 4436], with less than 75 nM.
In the case of `CC(C)(C)OC(=O)C(C)(C)NC(=O)N[C@H](C(=O)N1C[C@H]2[C@@H]([C@H]1C(=O)NC(CC1CC1)C(=O)C(N)=O)C2(Cl)Cl)C(C)(C)C` (some centres unmarked) [compound 4437] it was less than 75 nM; in that of `C=CCNC(=O)C(=O)C(CCC)NC(=O)[C@@H]1[C@@H]2[C@H](CN1C(=O)[C@@H](NC(=O)N[C@H](C(=O)OC(C)(C)C)C(C)(C)C)C(C)(C)C)C2(C)C` (some centres unmarked) [compound 4438], less than 75 nM.
As for `CC(C)(C)C[C@H](NC(=O)N[C@H](C(=O)N1C[C@H]2[C@@H]([C@H]1C(=O)NC(CC1CCC1)C(=O)C(N)=O)C2(C)C)C(C)(C)C)C(=O)OCc1ccccc1` (some centres unmarked) [compound 4439], the Ki is less than 75 nM.
Consider `CC(C)(C)[C@H](NC(=O)NC1(C(=O)OCc2ccsc2)CCCCC1)C(=O)N1C[C@H]2[C@@H]([C@H]1C(=O)NC(CC1CCC1)C(=O)C(N)=O)C2(C)C` (some centres unmarked) [compound 4440], for which the inhibition constant Ki is less than 75 nM.
`CC(C)(C)C[C@H](NC(=O)N[C@H](C(=O)N1C[C@H]2[C@@H]([C@H]1C(=O)NC(CC1CC1)C(=O)C(N)=O)C2(C)C)C(C)(C)C)C(=O)OCC1CC1` (some centres unmarked) [compound 4441]: the Ki is less than 75 nM.
In the case of `CC(OC(=O)[C@H](CC(C)(C)C)NC(=O)N[C@H](C(=O)N1C[C@H]2[C@@H]([C@H]1C(=O)NC(CC1CC1)C(=O)C(N)=O)C2(C)C)C(C)(C)C)C1CC1` (some centres unmarked) [compound 4442] it was less than 75 nM; in that of `C=CCNC(=O)C(=O)C(CCC)NC(=O)[C@@H]1[C@@H]2[C@H](CN1C(=O)[C@@H](NC(=O)N[C@H](C(=O)OCC1CC1)C1(C(F)(F)F)CC1)C(C)(C)C)C2(C)C` (some centres unmarked) [compound 4443], less than 75 nM.
Regarding `C=CCNC(=O)C(=O)C(CCC)NC(=O)[C@@H]1[C@@H]2[C@H](CN1C(=O)[C@@H](NC(=O)N[C@H](C(=O)OCC1CC1)C1CCCCC1)C(C)(C)C)C2(C)C` (some centres unmarked) [compound 4445], the Ki was less than 75 nM.
Then `C=CCNC(=O)C(=O)C(CCC(F)(F)F)NC(=O)[C@@H]1[C@@H]2[C@H](CN1C(=O)[C@@H](NC(=O)N[C@H](C(=O)OCC1CC1)C(C)(C)C)C(C)(C)C)C2(C)C` (some centres unmarked) [compound 4446], with less than 75 nM; and `CC(C)(C)[C@H](NC(=O)NC1(C(=O)OCC2CC2)CCCCC1)C(=O)N1C[C@H]2[C@@H]([C@H]1C(=O)NC(CC1CC1)C(=O)C(N)=O)C2(C)C` (some centres unmarked) [compound 4447], with less than 75 nM.
In the case of `CC(C)(C)[C@H](NC(=O)NC1(C(=O)OCc2ccoc2)CCCCC1)C(=O)N1C[C@H]2[C@@H]([C@H]1C(=O)NC(CC1CC1)C(=O)C(N)=O)C2(C)C` (some centres unmarked) [compound 4448] it was less than 75 nM; in that of `CC(C)(C)[C@@H](NC(=O)N[C@@H](C(=O)N1C[C@H]2[C@@H]([C@H]1C(=O)NC(CC1CC1)C(=O)C(N)=O)C2(Cl)Cl)C(C)(C)C)C(=O)OC1Cc2ccccc2C1` (some centres unmarked) [compound 4449], less than 75 nM; in that of `CC(C)(C)C[C@H](NC(=O)N[C@H](C(=O)N1C[C@H]2[C@@H]([C@H]1C(=O)NC(CC1CC1)C(=O)C(N)=O)C2(C)C)C(C)(C)C)C(=O)OCc1ccsc1` (some centres unmarked) [compound 4450], less than 75 nM.
Then `CC(C)[C@](C)(NC(=O)N[C@H](C(=O)N1C[C@H]2[C@@H]([C@H]1C(=O)NC(CC1CC1)C(=O)C(N)=O)C2(C)C)C1CCCCC1)C(=O)OCc1ccccc1` (some centres unmarked) [compound 4451], with less than 75 nM; and `COc1ccc(COC(=O)C2(NC(=O)N[C@H](C(=O)N3C[C@H]4[C@@H]([C@H]3C(=O)NC(CC3CC3)C(=O)C(N)=O)C4(C)C)C(C)(C)C)CCCCC2)cc1` (some centres unmarked) [compound 4452], with less than 75 nM; and `CC(C)(C)[C@@H](NC(=O)N[C@H](C(=O)N1C[C@H]2[C@@H]([C@H]1C(=O)NC(CC1CC1)C(=O)C(N)=O)C2(C)C)C1CCCCC1)C(=O)OCc1ccccc1` (some centres unmarked) [compound 4453], with less than 75 nM.
In the case of `C=CCNC(=O)C(=O)C(CCC)NC(=O)[C@@H]1[C@@H]2[C@H](CN1C(=O)[C@@H](NC(=O)N[C@H](C(=O)OCc1ccccc1)C(C)C)C(C)(C)C)C2(C)C` (some centres unmarked) [compound 4454], the Ki is less than 75 nM.
Consider `C=CCNC(=O)C(=O)C(CCC)NC(=O)[C@@H]1[C@@H]2[C@H](CN1C(=O)[C@@H](NC(=O)N[C@H](C(=O)OCc1ccccc1)C1CCCCC1)C(C)(C)C)C2(C)C` (some centres unmarked) [compound 4455], for which the Ki is less than 75 nM.
In the case of `C=CCNC(=O)C(=O)C(CCCC)NC(=O)[C@@H]1[C@@H]2[C@H](CN1C(=O)[C@@H](NC(=O)N[C@H](C(=O)OC(C)(C)C)C(C)(C)C)C1CCCCC1)C2(C)C` (some centres unmarked) [compound 4456], the Ki was less than 75 nM.
`C=CCNC(=O)C(=O)C(CCCC)NC(=O)[C@@H]1[C@@H]2[C@H](CN1C(=O)[C@@H](NC(=O)N[C@H](C(=O)OC(C)(C)C)C(C)C)C1(C)CCCCC1)C2(C)C` (some centres unmarked) [compound 4458]: the Ki is less than 75 nM.
Turning to `C=CCNC(=O)C(=O)C(CCC)NC(=O)[C@@H]1[C@@H]2[C@H](CN1C(=O)[C@@H](NC(=O)N[C@H](C(=O)OC(C)C1CC1)C(C)C)C(C)(C)C)C2(C)C` (some centres unmarked) [compound 4459], the inhibition constant (Ki) is less than 75 nM.
Take `C=CCNC(=O)C(=O)C(CCC(F)(F)F)NC(=O)[C@@H]1[C@@H]2[C@H](CN1C(=O)[C@@H](NC(=O)N[C@H](C(=O)OCC1CC1)C(C)C)C(C)(C)C)C2(C)C` (some centres unmarked) [compound 4460]: the Ki was less than 75 nM.
With `C=CCNC(=O)C(=O)C(CCC(F)(F)F)NC(=O)[C@@H]1[C@@H]2[C@H](CN1C(=O)[C@@H](NC(=O)N[C@H](C(=O)OC(C)C1CC1)C(C)C)C(C)(C)C)C2(C)C` (some centres unmarked) [compound 4461], the inhibitory constant (Ki) is less than 75 nM.
In the case of `C=CCNC(=O)C(=O)C(CCC)NC(=O)[C@@H]1[C@@H]2[C@H](CN1C(=O)[C@@H](NC(=O)N[C@H](C(=O)OCc1ccc(F)cc1)C(C)C)C(C)(C)C)C2(C)C` (some centres unmarked) [compound 4462], the Ki was less than 75 nM.
